From paper PMC4336329 (PLoS ONE, 2015)
Hit rate of the full screen: of about 310,000 compounds, about 2,200 (0.71%) showed an effect of 50% or more. Effects have a minus sign here. The list shows a part of the results.

biological target: human ether-à-go-go-related gene (hERG) potassium channel (human, UniProt Q12809); test: primary screen, population patch clamp on CHO cells stably expressing hERG
Sequence (Q12809 whole entry, looked up): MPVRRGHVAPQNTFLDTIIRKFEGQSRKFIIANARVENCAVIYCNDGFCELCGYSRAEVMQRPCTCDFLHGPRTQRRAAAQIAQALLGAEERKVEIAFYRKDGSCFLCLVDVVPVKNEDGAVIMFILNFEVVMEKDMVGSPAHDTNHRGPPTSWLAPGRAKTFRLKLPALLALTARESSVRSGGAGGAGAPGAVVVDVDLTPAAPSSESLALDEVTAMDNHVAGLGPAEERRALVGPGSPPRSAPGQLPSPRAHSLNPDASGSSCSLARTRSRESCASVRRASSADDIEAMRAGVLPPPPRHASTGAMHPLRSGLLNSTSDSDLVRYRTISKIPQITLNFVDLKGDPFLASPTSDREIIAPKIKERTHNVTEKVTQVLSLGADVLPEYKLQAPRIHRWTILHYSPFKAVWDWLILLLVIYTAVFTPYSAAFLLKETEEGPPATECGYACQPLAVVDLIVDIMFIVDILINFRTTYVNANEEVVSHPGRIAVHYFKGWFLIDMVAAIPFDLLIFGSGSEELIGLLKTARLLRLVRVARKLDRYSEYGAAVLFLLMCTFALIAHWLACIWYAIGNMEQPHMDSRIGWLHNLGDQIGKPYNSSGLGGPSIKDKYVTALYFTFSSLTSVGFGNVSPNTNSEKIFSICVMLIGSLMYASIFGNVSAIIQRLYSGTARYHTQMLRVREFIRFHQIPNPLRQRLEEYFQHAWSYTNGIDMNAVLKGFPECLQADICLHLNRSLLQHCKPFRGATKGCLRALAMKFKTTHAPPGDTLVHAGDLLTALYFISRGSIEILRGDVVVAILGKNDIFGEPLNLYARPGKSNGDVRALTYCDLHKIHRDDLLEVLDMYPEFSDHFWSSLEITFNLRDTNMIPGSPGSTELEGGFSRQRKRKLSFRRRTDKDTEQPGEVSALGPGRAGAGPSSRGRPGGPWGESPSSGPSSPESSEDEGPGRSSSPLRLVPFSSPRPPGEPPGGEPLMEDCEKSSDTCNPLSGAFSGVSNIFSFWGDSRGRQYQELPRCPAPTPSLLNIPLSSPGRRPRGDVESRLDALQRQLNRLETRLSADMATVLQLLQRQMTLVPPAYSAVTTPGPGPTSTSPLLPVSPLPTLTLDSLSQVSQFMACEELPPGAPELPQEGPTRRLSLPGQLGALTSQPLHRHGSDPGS

In order of rising “hERG current change (%, negative = inhibition) at 1uM” value:
1. COc1cccc(-c2nnc(-c3ccccc3NC(=O)c3ccc(C(C)(C)C)cc3)o2)c1  -18.3%
2. O=C(C1=C[C@H](c2coc3ccccc3c2=O)C[C@H](OCc2ccc(CO)cc2)O1)N1CCN(Cc2ccc3c(c2)OCO3)CC1  -12.8%
3. COc1ccc(N2CCN(c3oc(-c4ccc(OC)c(OC)c4)nc3C#N)CC2)cc1  -11%
4. O=C(O)c1ccc2oc(SCC(=O)N3CCCCC3)nc2c1  -5.99%
5. COCCn1cnc2c1c(=O)n(Cc1ccc(C#N)cc1)c(=O)n2Cc1ccccc1  -4.86%
6. COc1ccc(C(=O)CCC(=O)N2CCN(c3cc(C)ccc3C)CC2)cc1  -4.12%
7. N#CC1=C(N)N(c2ccccc2)C2=C(C(=O)CCC2)C1c1cccs1 (stereo not drawn)  -3.87%
8. CCC(c1nnnn1CS(=O)(=O)c1ccc(C)cc1)N1CCC(C(N)=O)CC1.Cl (stereo not drawn)  -3.7%
9. CCOC(=O)C1=C(CN2CC(C)CC(C)C2)NC(=O)NC1c1ccc2c(c1)OCO2 (stereo not drawn)  -2.2%
10. COc1ccc(C(=O)Nn2cnc3scc(-c4cccs4)c3c2=O)c(O)c1  -1.01%
11. Cc1ccc(S(=O)(=O)N2CCC(C(=O)N[C@@H](C)C(=O)NCc3ccco3)CC2)cc1  0.0516%
12. COc1cc(/C=N/NC(=O)CN(CCc2ccccc2)S(=O)(=O)c2ccc(NC(C)=O)cc2)cc(OC)c1OC  1.07%
13. CCN(C(=O)c1ccc(C)c(Br)c1)c1ccccc1  1.12%
14. COc1ccccc1-n1cnc2cc(C(=O)NCc3ccco3)ccc21  2.55%
15. O=C1C2ON(c3ccccc3)C(c3ccncc3)C2C(=O)N1c1ccccc1 (stereo not drawn)  2.82%
16. C/C(=N\N=C\c1cccc(F)c1)c1nnn(-c2nonc2N)c1C  3.97%
17. CCN(CC)S(=O)(=O)c1cc(C(=O)NCCN2CCOCC2)ccc1Cl.Cl  4.68%
18. COc1ccc(-c2ccc(-c3nnc(-c4cc(OC)ccc4OC)o3)cc2)cc1  5.76%
19. O=C(c1ccco1)N1CCN(C(=S)Nc2ccccc2C(F)(F)F)CC1  6.07%
20. CN(C)Cc1nnnn1-c1ccccc1  6.13%
21. CCC(C(=O)NCc1ccccc1OC)c1ccccc1 (stereo not drawn)  6.18%
22. Cc1cc(C)nc(/N=C(\N)N2CCCCCC2)n1  6.3%
23. Cc1cc(Sc2nccn2C)ncc1[N+](=O)[O-]  7.02%
24. Cc1ccc(S(=O)(=O)/C(C#N)=C/c2c(N3CC(C)OC(C)C3)nc3ccccn3c2=O)cc1 (stereo not drawn)  7.3%
25. Cc1ccc(C(=O)COC(=O)CNC(=O)C(c2ccccc2)c2ccccc2)cc1[N+](=O)[O-]  8.85%
26. CCOC(=O)C1=C(c2ccccc2)N=c2s/c(=C\c3ccc(O)cc3)c(=O)n2C1c1cccs1 (stereo not drawn)  8.91%
27. CCN(CC)S(=O)(=O)c1ccc2[nH]c(=O)cc(C(=O)Nc3ccc(C)cc3)c2c1  9.25%
28. Cn1nc(CC(=O)Nc2ccc3c(c2)OCCO3)c2ccccc2c1=O  9.68%
29. CCn1c(COc2ccc(C)cc2)nnc1SCC(=O)Nc1ccc(S(N)(=O)=O)cc1  9.73%
30. CN(/C=C1/C(=O)CNC1=O)CCO  9.91%
31. CC1=C(C(=O)OC2CCCC2)C(c2coc3ccccc3c2=O)C2=C(CCCC2=O)N1 (stereo not drawn)  10.3%
32. Cc1nc2ccccc2c(=O)n1NC(=O)c1ccccc1Cl  10.4%
33. Cc1cc(C(F)(F)F)n2nc(-c3cccs3)cc2n1  10.4%
34. Cc1nnc(SCC(=O)N(CC(C)C)c2c(N)n(Cc3ccccc3)c(=O)[nH]c2=O)n1N  10.6%
35. CCOc1ccc(C(=O)CC(C(=O)O)N2CCCCC2)cc1 (stereo not drawn)  11%
36. CCOc1ccc(C(C(=O)NC2CCCC2)N(C(=O)c2snc(C(N)=O)c2N)c2cccc(O)c2)cc1 (stereo not drawn)  11.3%
37. COc1cc(CCC(=O)Nc2ccc(S(=O)(=O)NC3=NCCCCC3)cc2)cc(OC)c1OC  11.4%
38. CCCn1nnnc1NCc1cccc(OC)c1OC  11.8%
39. COc1cc(/C=N/NC(=O)c2cccnc2)ccc1OCC(=O)N1CCOCC1  11.8%
40. O=C(C1CCN(CC2CCCCC2)CC1)N1CCCC1  11.8%
41. COc1cccc(CN2CCC(C(=O)N3CCN(c4ccccc4F)CC3)CC2)c1OC.O=C(O)C(=O)O  12.2%
42. COc1ccc(-c2nc(C)sc2CC(=O)O)cc1  12.6%
43. O=C(NC(Cc1ccc(F)cc1)C(=O)O)c1ccccc1 (stereo not drawn)  12.8%
44. Clc1ncccc1-c1nc2ccccc2s1  12.9%
45. C=CCSc1nc(C)c(Cc2cccc3ccccc23)c(=O)[nH]1  13.2%
46. O=c1[nH]c(=O)n(Cc2ccccc2)c2c1CCC2  13.5%
47. O=C(Cc1n[nH]c(=O)[nH]c1=O)N/N=C/c1cccc(Cl)c1  13.6%
48. CN1/C(=C/C(=O)C2CCC2)Sc2ccccc21  14.2%
49. CCOc1ccc(CNC(=O)C2CCN(c3nnc(C)c4c(C)n(-c5ccc(C)cc5)nc34)CC2)cc1  14.6%
50. COC(=O)Cc1cc(OC)c(OC)cc1Cc1cc(OC)c(OC)cc1CC(=O)OC  14.7%
51. COc1cc(N2CCCC2)c(OC)cc1/C=C(/C#N)c1cccc(Br)c1  15.6%
52. CCOC(=O)c1cc(C(=O)OCC)c(=O)[nH]c1N1CCCCC1  16.1%
53. CCOc1ccccc1N1CCN(C(=O)NCc2ccc(C)cc2)CC1  16.2%
54. O=C(O)CCN1CC2([N+](=O)[O-])C=CC(=O)C([N+](=O)[O-])(C1)C2CC(=O)c1ccccc1 (stereo not drawn)  16.5%
